The other results are listed elsewhere or left out. Most values come without repeats; read them as rough.
The compounds below were run on LOXIMVI (assay: cell count relative to DMSO control; melanoma cells; higher = more viable cells). Conditions: library dose: low library concentration; 72 h.
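Note: cell number obtained by counting DAPI-stained nuclei in high-throughput microscope images with image analysis software, screen run in 1,536-well plates.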

SMILES | cell count [%]
N#CC[C@H](C1CCCC1)n1cc(-c2ncnc3[nH]ccc23)cn1 [ruxolitinib] + Clc1ccc(Nc2nnc(Cc3ccncc3)c3ccccc23)cc1 [vatalanib] (first compound 1 µM, partner dose 2 µM) | 148
N#CC[C@H](C1CCCC1)n1cc(-c2ncnc3[nH]ccc23)cn1 [ruxolitinib] + O=C(/C=C/c1cccnc1)NCCCCC1CCN(C(=O)c2ccccc2)CC1 [FK866] (first compound 1 µM, partner dose 0.01 µM) | 46
Cc1cc(Nc2cc(N3CCN(C)CC3)nc(Sc3ccc(NC(=O)C4CC4)cc3)n2)n[nH]1 [Tozasertib] + CN(NC(=O)CC(=O)NN(C)C(=S)c1ccccc1)C(=S)c1ccccc1 [STA4783] (first compound 0.006 µM, partner dose 0.006 µM) | 58
N#CC[C@H](C1CCCC1)n1cc(-c2ncnc3[nH]ccc23)cn1 [ruxolitinib] + CO[C@H]1C[C@@H]2CC[C@@H](C)[C@@](O)(O2)C(=O)C(=O)N2CCCC[C@H]2C(=O)O[C@H]([C@H](C)C[C@@H]2CC[C@@H](OCCO)[C@H](OC)C2)CC(=O)[C@H](C)/C=C(\C)[C@@H](O)[C@@H](OC)C(=O)[C@H](C)C[C@H](C)/C=C/C=C/C=C/1C [everolimus] (first compound 1 µM, partner dose 0.02 µM) | 68
Cc1cc(Nc2cc(N3CCN(C)CC3)nc(Sc3ccc(NC(=O)C4CC4)cc3)n2)n[nH]1 [Tozasertib] + Cc1cc(Nc2cc(N3CCN(C)CC3)nc(/C=C/c3ccccc3)n2)n[nH]1 [ENMD2076] (first compound 0.006 µM, partner dose 0.04 µM) | 90.1
Cc1cc(Nc2cc(N3CCN(C)CC3)nc(Sc3ccc(NC(=O)C4CC4)cc3)n2)n[nH]1 [Tozasertib] + CC1(C)NC(=O)N(c2ccc([N+](=O)[O-])c(C(F)(F)F)c2)C1=O [nilutamide] (first compound 0.006 µM, partner dose 1 µM) | 90.4
CC[C@]1(O)C[C@H]2CN(CCc3c([nH]c4ccccc34)[C@@](C(=O)OC)(c3cc4c(cc3OC)N(C=O)[C@H]3[C@@](O)(C(=O)OC)[C@H](OC(C)=O)[C@]5(CC)C=CCN6CC[C@]43[C@@H]65)C2)C1 [vincristine] + COc1ccc(Cl)c(Nc2nc3ccccc3nc2NS(=O)(=O)c2cccc(NC(=O)C(C)(C)N)c2)c1 [XL147] (first compound 0.0001 µM, partner dose 0.8 µM) | 98.7
N#CC[C@H](C1CCCC1)n1cc(-c2ncnc3[nH]ccc23)cn1 [ruxolitinib] + CCN(CC)CCNC(=O)c1c(C)[nH]c(/C=C2\C(=O)Nc3ccc(F)cc32)c1C [sunitinib] (first compound 1 µM, partner dose 0.4 µM) | 125
Cc1cc(Nc2cc(N3CCN(C)CC3)nc(Sc3ccc(NC(=O)C4CC4)cc3)n2)n[nH]1 [Tozasertib] + COc1cc([C@@H]2c3cc4c(cc3[C@@H](O[C@@H]3O[C@@H]5CO[C@@H](C)O[C@H]5[C@H](O)[C@H]3O)[C@H]3COC(=O)[C@H]23)OCO4)cc(OC)c1O [etoposide] (first compound 0.006 µM, partner dose 0.02 µM) | 129
CC[C@]1(O)C[C@H]2CN(CCc3c([nH]c4ccccc34)[C@@](C(=O)OC)(c3cc4c(cc3OC)N(C=O)[C@H]3[C@@](O)(C(=O)OC)[C@H](OC(C)=O)[C@]5(CC)C=CCN6CC[C@]43[C@@H]65)C2)C1 [vincristine] + Oc1nc(-c2ccc(C(F)(F)F)cc2)nc2c1CSCC2 [XAV939] (first compound 0.0001 µM, partner dose 2 µM) | 119
CC[C@]1(O)C[C@H]2CN(CCc3c([nH]c4ccccc34)[C@@](C(=O)OC)(c3cc4c(cc3OC)N(C=O)[C@H]3[C@@](O)(C(=O)OC)[C@H](OC(C)=O)[C@]5(CC)C=CCN6CC[C@]43[C@@H]65)C2)C1 [vincristine] + CC(=O)O[C@@]12CO[C@@H]1C[C@H](O)[C@@]1(C)C(=O)[C@H](O)C3=C(C)[C@@H](OC(=O)[C@H](O)[C@@H](NC(=O)OC(C)(C)C)c4ccccc4)C[C@@](O)([C@@H](OC(=O)c4ccccc4)[C@H]21)C3(C)C [Docetaxel] (first compound 0.0001 µM, partner dose 0.0001 µM) | 65.8

Source: the supplement of paper PMC4604168 (melanoma cell lines)
